{"source": "PubChem BioAssay AID463173", "about": "(ICCB-Longwood Screening Facility, Harvard Medical School, 2010)", "note": "Out of some 52,000 compounds screened, about 4,300 (8.3%) were called active. Rule as the data show it: active = survival mostly below about 52% (no sharp cut-off); inactive = mostly above about 56%. Some of the results follow.", "data": [{"system": "DeltatarO mutant", "assay": "growth inhibition of S. aureus wild type versus tarO mutant, primary screen, teichoic acid synthesis inhibitors, RN4220, OD600 (AID 463173)", "conditions": "OD600, 18 h, hits give low values, screened at 18.75 µg/mL (by protocol)", "values": [{"smiles": "CCOC(=O)c1ccc(Nc2nc(N)c3cc(OC)c(OC)cc3n2)cc1", "survival": "inactive: 69%"}, {"smiles": "Cc1oc2ncnc(N3CCCCC3)c2c1C(=O)Nc1cccc(Cl)c1C", "survival": "inactive: 109%"}, {"smiles": "CCc1ccccc1NS(=O)(=O)c1ccc(-c2coc(C)n2)cc1", "survival": "inactive: 90%"}, {"smiles": "CCC1CCCCN1S(=O)(=O)c1ccc(NC(=O)c2nc(SC)ncc2Cl)cc1", "note": "(stereo unspecified)", "survival": "inactive: 74%"}, {"smiles": "Cn1c2c(c(=O)n(C)c1=O)C(c1cc(Br)ccc1F)CC(=O)N2", "note": "(stereo unspecified)", "survival": "inactive: 71%"}, {"smiles": "Cc1nc2cc(-c3ccccc3)nn2c(C)c1CCC(=O)NCCc1ccccc1", "survival": "inactive: 54%"}, {"smiles": "COc1ccc(-c2ccc3c(N)c(C(=O)Nc4ccc(C)cc4C)sc3n2)cc1OC", "survival": "inactive: 95%"}, {"smiles": "COc1ccc(S(=O)(=O)NCC(c2ccco2)N2CCN(c3ccccc3F)CC2)cc1OC", "note": "(stereo unspecified)", "survival": "inactive: 84%"}, {"smiles": "CC(C)c1nc2ccc(C(=O)NCc3ccc(F)cc3)cc2o1", "survival": "inactive: 78%"}, {"smiles": "Cn1c(=O)n(C)c2cc(S(=O)(=O)N3CCCCC3)ccc21", "survival": "inactive: 77%"}, {"smiles": "CCn1cc(C(=O)NCCCN2CCC(C)CC2)c(=O)c2cc(S(=O)(=O)N(C)C3CCCCC3)ccc21", "survival": "inactive: 96%"}, {"smiles": "Cc1nn(C)c2c1c(-c1ccccc1)cc(=O)n2C(C)C(=O)NCCc1ccc(Cl)cc1", "note": "(stereo unspecified)", "survival": "inactive: 99%"}, {"smiles": "Cc1ccc(NC(=O)c2c(C)oc3ccc(O)c(CN4CCCCC4)c23)cc1", "survival": "inactive: 75%"}, {"smiles": "COc1ccc(NC(=O)c2cc(S(=O)(=O)N3CCCCC3)c[nH]2)cc1Cl", "survival": "inactive: 69%"}, {"smiles": "Cc1cc(C)c(/C=C/c2onc(C)c2S(=O)(=O)N2CCC(C(=O)NCC(C)c3ccccc3)CC2)c(C)c1", "note": "(stereo unspecified)", "survival": "inactive: 115%"}, {"smiles": "Cc1cc(NC(=O)CC(C)C)cc(-c2nc3ncccc3o2)c1O", "survival": "inactive: 90%"}, {"smiles": "CC1CCN(C(=O)c2ccccc2NC(=O)c2nsc3ccccc23)CC1", "survival": "inactive: 124%"}, {"smiles": "COCCn1c(SCc2ccncc2)nc2ccccc2c1=O", "survival": "inactive: 85%"}, {"smiles": "COc1ccccc1N1CCN(C(=O)c2nc(-c3ccc(C)cc3)n3c2CCCCC3)CC1", "survival": "inactive: 76%"}, {"smiles": "CCOc1ccc(-c2cc(NC(=O)c3c(F)cccc3F)c(C(=O)OC)s2)cc1", "survival": "inactive: 77%"}, {"smiles": "COc1ccc(C2C(=O)N(C3CCCCCC3)CC(=O)N2CCc2ccccc2)cc1", "note": "(stereo unspecified)", "survival": "inactive: 118%"}, {"smiles": "Cc1ccc(CNC(C)c2ccccc2)s1", "note": "(stereo unspecified)", "survival": "inactive: 75%"}, {"smiles": "CC(C)(C)OC(=O)N1CCC(c2c(C(=O)Nc3ccc4c(c3)OCCO4)cnn2-c2ccc(F)cc2)CC1", "survival": "inactive: 89%"}, {"smiles": "O=C(NCCc1ccccc1)c1ccc2c(c1)N(Cc1ccccc1)C(=O)c1ccccc1S2=O", "note": "(stereo unspecified)", "survival": "inactive: 70%"}, {"smiles": "Cc1cccc(-c2nc3c(cnn3-c3ccccc3)c(=O)n2-c2cccc(Cl)c2)c1", "survival": "active: 44%"}, {"smiles": "Cc1ccc(C(CC(=O)NCC2(c3ccccc3)CCCC2)c2ccccc2)c(O)c1", "note": "(stereo unspecified)", "survival": "inactive: 101%"}, {"smiles": "Cc1ccc(CCNC(=O)CN2C(=O)COc3ccc(S(=O)(=O)N4CCCCC4)cc32)cc1", "survival": "inactive: 78%"}, {"smiles": "Cc1ccc(Nc2nnc(-c3ccc(C)c(S(=O)(=O)N4CCCCC4)c3)c3ccccc23)cc1", "survival": "inactive: 109%"}, {"smiles": "CCOc1ccc2c(c1)[C@@H]1C=CC[C@@H]1[C@H](c1ccccc1Cl)N2", "survival": "active: -10%"}, {"smiles": "CC(=O)Nc1cc(C(=O)NCc2ccc(F)cc2)ccc1Sc1ccc(C)cc1", "survival": "inactive: 94%"}, {"smiles": "CCOC(=O)CC(NC(=O)Cn1nnc(-c2ccc(C(F)(F)F)cc2)n1)c1ccccc1Cl", "note": "(stereo unspecified)", "survival": "inactive: 73%"}, {"smiles": "COc1ccc(C)cc1NC(=O)c1cc2c(s1)-c1ccccc1SC2", "survival": "inactive: 71%"}, {"smiles": "Cc1nn(-c2ccccc2)c(-n2cccc2)c1C(=O)NCc1ccccc1Cl", "survival": "active: 2%"}, {"smiles": "CC1CCN(S(=O)(=O)c2ccc3ncn(CC(=O)Nc4ccccc4C(F)(F)F)c(=O)c3c2)CC1", "survival": "inactive: 62%"}, {"smiles": "Cc1cc(OCC(=O)Nc2cnn(CCCC(=O)O)c2)ccc1Cl", "survival": "inactive: 59%"}, {"smiles": "O=C1CN(C(=O)c2ccc(Cl)cc2Cl)C(c2ccc(F)cc2)c2cc(F)ccc2N1", "note": "(stereo unspecified)", "survival": "inactive: 65%"}, {"smiles": "CCOC(=O)C1CCN(C(=O)CSc2n[nH]c(-c3ccccc3Cl)n2)CC1", "survival": "inactive: 77%"}, {"smiles": "CN(C)c1ccc(CNC(=O)c2cc3ccccn3n2)cc1", "survival": "inactive: 55%"}, {"smiles": "Cc1ccc(C)c(NC(=O)CCCN2C(=O)COc3ccc(C)cc32)c1", "survival": "inactive: 120%"}, {"smiles": "Cc1cc(C)cc(NC(=O)CSc2nnc(COc3ccccc3Cl)o2)c1", "survival": "active: 12%"}, {"smiles": "CCN(CC)S(=O)(=O)c1ccc2c(c1)c(=O)c(C(=O)N(C)Cc1ccccc1)cn2C", "survival": "inactive: 80%"}, {"smiles": "CC(C)(C)OC(=O)N1CCC(c2c(C(=O)Nc3cccc(C(F)(F)F)c3)cnn2-c2ccc(F)cc2F)CC1", "survival": "inactive: 61%"}, {"smiles": "CC(=O)Nc1nonc1-c1nnc(SCc2ccc(F)cc2Cl)n1C", "survival": "inactive: 45%"}, {"smiles": "Cc1cc(C)cc(NC(=O)c2sc3nc(-c4ccccc4)cn3c2C)c1", "survival": "inactive: 116%"}, {"smiles": "COc1ccc(NC(=O)c2cc(-c3ccc4c(c3)OCO4)on2)c(OC)c1", "survival": "inactive: 71%"}, {"smiles": "CCOC(=O)c1cccc(NC(=O)CCS(=O)(=O)c2ccc(Br)s2)c1", "survival": "inactive: 71%"}, {"smiles": "Cc1ccc(NC(=O)CN2Cc3ccccc3C2=O)c(C)c1", "survival": "inactive: 89%"}, {"smiles": "Cn1c(=O)c2c(nc(SCC(=O)Nc3ccc(F)cc3F)n2Cc2ccccc2)n(C)c1=O", "survival": "inactive: 135%"}, {"smiles": "COc1ccc(/C=C/C(=O)Nc2ccc3nc(N4CCC(C)CC4)cc(C)c3c2)cc1OC", "survival": "inactive: 51%"}, {"smiles": "CC1(C(=O)NC2CCCCC2)Cc2ccccc2C(=O)N1Cc1ccc(Cl)cc1", "note": "(stereo unspecified)", "survival": "inactive: 92%"}, {"smiles": "COc1cccc(C2C(C(=O)Nc3ccc(Cl)cc3)=C(C)Nc3c(C(=O)Nc4ccccc4)cnn32)c1OC", "note": "(stereo unspecified)", "survival": "inactive: 71%"}, {"smiles": "O=C(CN(Cc1ccccc1F)C(=O)c1ccco1)NCc1ccc(F)cc1", "survival": "inactive: 97%"}, {"smiles": "CCOc1ccc(CNC(=O)CN2C(=O)CCn3nc(-c4cn(C)c5ccccc45)cc32)cc1OC", "survival": "active: -4%"}, {"smiles": "CCCn1c2ccccc2c2cnn(CC(=O)Nc3cccc(C(=O)OCC)c3)c(=O)c21", "survival": "inactive: 73%"}, {"smiles": "O=C(NCc1cccs1)c1nn(-c2ccccc2)nc1CO", "survival": "inactive: 84%"}, {"smiles": "Cc1ccc(NC(=O)Cn2c(=O)n(-c3ccc(C)cc3)c(=O)c3ccc(C(=O)NCc4ccccc4Cl)cc32)cc1", "survival": "inactive: 74%"}]}]}
